Experimental data: the supplement of paper PMC3334620
The full ranking holds about 33,000 sequences; the median of “E-score (-0.5 to 0.5)” is about -0.053, and the highest 2% start at about 0.37. Some of the results follow.

Each sequence was assayed against Hap1 (UniProt P0CE41) (assay: PBM E-score (8-mer binding enrichment) (E-score (-0.5 to 0.5)); higher = stronger / more preferred TF binding; most listed sequences are background and not binding sites). Conditions: protein concentration: 200 nM; construct: GST-DNA-binding domain.
In short: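 Universal all-10-mer Agilent arrays, fresh or stripped once, were converted to double-stranded form by primer extension. GST-tagged yeast transcription factors from PURExpress in vitro transcription/translation, full-length or DNA-binding domain only, were applied at about 100-200 nM and detected with fluorescent anti-GST. After masliner normalisation, the Universal PBM Analysis Suite scored each ungapped eight-base word together with its reverse complement by E-score.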

UniProt P0CE41, sequence (P0CE41 whole entry, the tested form may be a part): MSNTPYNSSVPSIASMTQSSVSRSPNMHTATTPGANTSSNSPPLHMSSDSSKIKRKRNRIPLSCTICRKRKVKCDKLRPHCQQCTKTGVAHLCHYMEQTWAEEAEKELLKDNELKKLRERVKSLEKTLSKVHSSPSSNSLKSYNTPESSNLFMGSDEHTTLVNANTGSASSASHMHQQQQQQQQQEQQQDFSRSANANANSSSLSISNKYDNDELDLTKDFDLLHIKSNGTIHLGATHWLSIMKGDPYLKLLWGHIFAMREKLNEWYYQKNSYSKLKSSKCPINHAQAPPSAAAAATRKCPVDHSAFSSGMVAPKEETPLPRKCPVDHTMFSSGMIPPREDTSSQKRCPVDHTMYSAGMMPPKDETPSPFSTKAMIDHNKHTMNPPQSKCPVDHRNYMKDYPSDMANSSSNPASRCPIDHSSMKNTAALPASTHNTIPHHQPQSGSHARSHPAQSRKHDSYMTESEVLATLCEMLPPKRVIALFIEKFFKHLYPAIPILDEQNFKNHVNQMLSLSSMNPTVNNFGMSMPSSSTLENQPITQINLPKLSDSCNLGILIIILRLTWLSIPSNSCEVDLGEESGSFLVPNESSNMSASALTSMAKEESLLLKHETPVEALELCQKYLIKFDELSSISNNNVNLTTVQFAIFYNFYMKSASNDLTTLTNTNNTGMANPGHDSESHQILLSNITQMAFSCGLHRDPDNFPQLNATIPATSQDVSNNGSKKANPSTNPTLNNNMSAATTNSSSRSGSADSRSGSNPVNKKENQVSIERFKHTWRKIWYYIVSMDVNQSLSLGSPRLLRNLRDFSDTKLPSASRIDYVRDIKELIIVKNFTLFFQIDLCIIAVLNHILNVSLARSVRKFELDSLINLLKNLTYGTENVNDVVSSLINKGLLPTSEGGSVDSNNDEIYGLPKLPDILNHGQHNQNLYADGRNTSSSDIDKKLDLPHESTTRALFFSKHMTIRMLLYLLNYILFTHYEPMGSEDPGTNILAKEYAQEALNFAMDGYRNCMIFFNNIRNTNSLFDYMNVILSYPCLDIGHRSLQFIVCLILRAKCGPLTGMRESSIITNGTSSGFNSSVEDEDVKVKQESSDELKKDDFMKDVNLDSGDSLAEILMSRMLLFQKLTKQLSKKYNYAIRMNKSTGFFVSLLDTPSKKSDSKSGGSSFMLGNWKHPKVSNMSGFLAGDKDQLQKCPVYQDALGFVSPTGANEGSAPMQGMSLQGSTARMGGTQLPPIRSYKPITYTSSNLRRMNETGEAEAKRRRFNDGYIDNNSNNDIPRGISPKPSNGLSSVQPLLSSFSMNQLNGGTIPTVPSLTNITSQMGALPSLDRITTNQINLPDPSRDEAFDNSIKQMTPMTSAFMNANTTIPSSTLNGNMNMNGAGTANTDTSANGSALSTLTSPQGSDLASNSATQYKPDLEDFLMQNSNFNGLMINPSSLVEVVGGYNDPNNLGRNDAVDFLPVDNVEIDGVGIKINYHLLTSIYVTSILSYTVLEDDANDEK

In order of falling “PBM E-score” value:
1. CGGAGCAG  0.353
2. ACGGACCT  0.344
3. CGTCGGAC  0.338
4. GATTTAAC  0.338
5. CGGCGAGA  0.287
6. CCGGCCAA  0.261
7. CGCCGACC  0.251
8. AATCCGTA  0.219
9. ATTAATCG  0.218
10. GCACGGAA  0.215
11. CCGCACCC  0.209
12. CGAGCTGC  0.175
13. AATGGCAT  0.171
14. AAGCGACC  0.15
15. GGTTTCTA  0.118
16. GAAACAAC  0.115
17. GGCGGGCA  0.109
18. GGGACTAA  0.0852
19. AGAACTGG  0.0747
20. AATTTCCA  0.0738
21. ATCGTACC  0.0548
22. AGTACGAA  0.0503
23. AGAAGGTG  0.0485
24. ACGATACT  0.0468
25. CGAAGAGA  0.0447
26. CCGCTAGA  0.0346
27. ACATACGG  0.0295
28. AATCTTTC  0.0211
29. GGGGGCTA  0.018
30. ATTATAGC  0.0053
31. CTACGGCA  0.00463
32. ATGCCTCA  0.00397
33. GGGGTAAA  0.00177
34. GGACCAGA  0.00068
35. GGAGGACA  -0.00168
36. GGTGTAAA  -0.0035
37. TACAGGGA  -0.00655
38. TCAGATAA  -0.00666
39. AAGTCCAA  -0.00743
40. CGAGTTGA  -0.0275
41. GTATGAAC  -0.0359
42. ATGCGTAG  -0.0444
43. CTCCACCA  -0.0486
44. AGAAAGCT  -0.049
45. ATTATCCA  -0.0526
46. AGGAAGCG  -0.0547
47. AACCAACC  -0.0552
48. AATGCCAG  -0.0601
49. CTGTGTTA  -0.0732
50. ATAGTTAC  -0.0759
51. ATGCTTCA  -0.0826
52. GCTGGCGA  -0.0888
53. AAAAGGGC  -0.0943
54. ATCACTTA  -0.0963
55. GGTCTAAA  -0.0974
56. TAGTCGAA  -0.0985
57. ACAGGTCG  -0.103
58. GTGGGGCA  -0.112
59. CTACATAC  -0.114
60. GGTAGGCA  -0.115
61. CAGTGGAC  -0.115
62. AGATCGCA  -0.116
63. GTAGTAGA  -0.126
64. GGGACTGA  -0.127
65. GCGCATCA  -0.132
66. AGCCTATA  -0.133
67. ATGCCACC  -0.135
68. CTGGATGA  -0.138
69. CAGCTTAC  -0.139
70. AGGTAGAA  -0.15
71. CACGCAAA  -0.151
72. AATACTGA  -0.153
73. AAAGGTGC  -0.159
74. AGCTGCTC  -0.164
75. ACGCCCAG  -0.174
76. CTGTAGGC  -0.194
77. CTTACTTA  -0.205
78. CCTGCATC  -0.213
79. CGCCAGCA  -0.214
80. CACGTTAC  -0.216
81. GCACCCTA  -0.223
82. TAAGACCA  -0.224
83. AACAGTCC  -0.229
84. AGTAGGAG  -0.236
85. TATATGCA  -0.237
86. GGCTCTGA  -0.241
87. ACTTTCTA  -0.242
88. AATTGTGG  -0.245
89. GTCGTTCA  -0.247
90. TCTCATCA  -0.254
91. AACGACCA  -0.269
92. AGGCATCA  -0.292
93. CAACAACA  -0.303
94. CTACACTA  -0.32
